According to the RNAGym collection of RNA variant scans (doi:10.1073/pnas.2313332121):
Variants at the floor of the assay are shown more often than the library holds them.

B1: TPR 5TU (parent)
chain: GGAUCUUCUCGAUCUAACAAAAAAGACAAAUCUGCCACAAAGCUUGAGAGCAUCUUCGGAUGCAGAGGCGGCAGCCUUCGGUGGCGCGAUAGCGCCAACGUUCUCAACUAUGACACGCAAAACGCGUGCUCCGUUGAAUGGAGUUUAUCAUG

Variants of: B1
Experiment: polymerase ribozyme fitness, log enrichment relative to wild type (log ratio); higher = more active; in vitro selection for triplet polymerase activity
Outline: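 For each subunit of a heterodimeric triplet polymerase ribozyme, a mutant library was built by PCR and transcribed, then taken through a single in vitro selection round in triplicate. Selection involved annealing to a biotinylated primer, the partner subunit and triplets, incubation frozen at −7 °C, gel excision of extended constructs, capture on streptavidin beads and RT-PCR. Genotypes were retained after Illumina sequencing of inputs and outputs only with ≥10 input reads and ≥1 read in each output. Fitness is defined as the logarithm of a genotype's enrichment relative to wild-type enrichment, using inverse-variance-weighted averages across replicates, with the logarithm taken to base 2.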
In the case of A29U A40U A47C G58C G67U C72A C125A U130G G133U, the “polymerase ribozyme fitness (log ratio)” value is reported as no more than -4.2. For A29U U61A, the “polymerase ribozyme fitness (log ratio)” value was no more than -4.2. With A30C A52C C76U C87U the “polymerase ribozyme fitness (log ratio)” value was no more than -4.2. In the case of A29G G50A G80U A91C U134A U146C, the “polymerase ribozyme fitness (log ratio)” value is reported as no more than -4.2. In the case of A29U U44A A49C C57U G88U, the “polymerase ribozyme fitness (log ratio)” value is reported as no more than -4.2. For A29U G58A C63U C69A, the “polymerase ribozyme fitness (log ratio)” value was no more than -4.2. For A30C U56A C75G C96A, the “polymerase ribozyme fitness (log ratio)” value was no more than -4.2. In the case of A29U C51G G83C A106C, the “polymerase ribozyme fitness (log ratio)” value is reported as no more than -4.2. In the case of A30G A39U C63U A73G C96U C125U, the “polymerase ribozyme fitness (log ratio)” value is reported as no more than -4.2. For A29C G65A C108U C116G C125A U146G A150G, the “polymerase ribozyme fitness (log ratio)” value was no more than -4.2. In the case of A30C G48A, the “polymerase ribozyme fitness (log ratio)” value is reported as no more than -4.2. With A29U C43G G58C G94C C95U the “polymerase ribozyme fitness (log ratio)” value was no more than -4.2. In the case of A30C U44A G86A C95A, the “polymerase ribozyme fitness (log ratio)” value is reported as no more than -4.2. In the case of A29U U55A A60G G86A U130C, the “polymerase ribozyme fitness (log ratio)” value is reported as no more than -4.2. For A30C G50C U53A C63U A64G U77C U78C G141A, the “polymerase ribozyme fitness (log ratio)” value was no more than -4.2. With A29U G58A C87U A98G C103A U111C G124A the “polymerase ribozyme fitness (log ratio)” value was no more than -4.2. With A29U C38U G67U C95U C105G G117C A137G G140A A142U the “polymerase ribozyme fitness (log ratio)” value was no more than -4.2. For A29U U109G C149G, the “polymerase ribozyme fitness (log ratio)” value was no more than -4.2. In the case of A29G A47C A89C G92U G94A U146C, the “polymerase ribozyme fitness (log ratio)” value is reported as no more than -4.2. With A30G A40G C54A C85U G117C the “polymerase ribozyme fitness (log ratio)” value was no more than -4.2. For A30C G86A, the “polymerase ribozyme fitness (log ratio)” value was no more than -4.2. With A29U A41U C75U C123U G143U U145G the “polymerase ribozyme fitness (log ratio)” value was no more than -4.2. In the case of A29U A41U, the “polymerase ribozyme fitness (log ratio)” value is reported as no more than -4.2. With A29G A30C G59C U90G C95G G133U the “polymerase ribozyme fitness (log ratio)” value was no more than -4.2. With A29U C38U U56G C63G C95G G126U the “polymerase ribozyme fitness (log ratio)” value was no more than -4.2. With A29U G133C the “polymerase ribozyme fitness (log ratio)” value was no more than -4.2. In the case of A29C C38G C54G G81A U82C C85G U90A G92U A110G G128C, the “polymerase ribozyme fitness (log ratio)” value is reported as no more than -4.2. With A30C C95U the “polymerase ribozyme fitness (log ratio)” value was -4.11. For A30C U53A C54A G83C A106C U144G, the “polymerase ribozyme fitness (log ratio)” value was no more than -4.2. With A29U G58C G86A G141U the “polymerase ribozyme fitness (log ratio)” value was no more than -4.2. For A29C G62U G80C C118A, the “polymerase ribozyme fitness (log ratio)” value was no more than -4.2. For A29U G46U G59A G70A A89U G117U U148A, the “polymerase ribozyme fitness (log ratio)” value was no more than -4.2. With A30C C79A C96U the “polymerase ribozyme fitness (log ratio)” value was no more than -4.2. For A29C G58C, the “polymerase ribozyme fitness (log ratio)” value was -3.97. For A29C C54A C87U A113U A120U G124U U148C, the “polymerase ribozyme fitness (log ratio)” value was no more than -4.2. For A29U A49U U78G G83C C99U G112A, the “polymerase ribozyme fitness (log ratio)” value was no more than -4.2. With A29C C54G A73G C79A G124A the “polymerase ribozyme fitness (log ratio)” value was no more than -4.2. For A29C U55A C63U C95G G133U G152U, the “polymerase ribozyme fitness (log ratio)” value was no more than -4.2. For A29G U33C G141A U145A, the “polymerase ribozyme fitness (log ratio)” value was no more than -4.2. With A30C C43U A49C C85G C108G the “polymerase ribozyme fitness (log ratio)” value was no more than -4.2. In the case of A29U A60G C76A, the “polymerase ribozyme fitness (log ratio)” value is reported as no more than -4.2. With A29G A49C G67A C114U U127G the “polymerase ribozyme fitness (log ratio)” value was no more than -4.2. With A29U U44C U45A C57A A64G C76A C95A A150C the “polymerase ribozyme fitness (log ratio)” value was no more than -4.2. For A29C G48A A142U, the “polymerase ribozyme fitness (log ratio)” value was no more than -4.2. For A29C C32G U61G C79A A91U C125A, the “polymerase ribozyme fitness (log ratio)” value was no more than -4.2. With A29G C93G the “polymerase ribozyme fitness (log ratio)” value was no more than -4.2. With A29C C35A the “polymerase ribozyme fitness (log ratio)” value was -3.91. In the case of A29U A52C, the “polymerase ribozyme fitness (log ratio)” value is reported as no more than -4.2. With A29C G58C G86A C93U U111A U148A the “polymerase ribozyme fitness (log ratio)” value was no more than -4.2. With A29U G88C C132U the “polymerase ribozyme fitness (log ratio)” value was no more than -4.2. For A30C C85U C96G G124C G143U, the “polymerase ribozyme fitness (log ratio)” value was no more than -4.2. For A29C U31C A41U C76G C95G, the “polymerase ribozyme fitness (log ratio)” value was no more than -4.2. In the case of A29C G48C, the “polymerase ribozyme fitness (log ratio)” value is reported as no more than -4.2. In the case of A29U C79G U130G A138C, the “polymerase ribozyme fitness (log ratio)” value is reported as no more than -4.2. For A29U G58C A60G G92C G117A, the “polymerase ribozyme fitness (log ratio)” value was no more than -4.2. In the case of A29C A66C C76U G94A A107U C118G, the “polymerase ribozyme fitness (log ratio)” value is reported as no more than -4.2. With A30C C79A G80C C96U C118U the “polymerase ribozyme fitness (log ratio)” value was no more than -4.2. In the case of A30C C79G C85U A106U, the “polymerase ribozyme fitness (log ratio)” value is reported as no more than -4.2. With A29G A39G G42C G48C G86A C87A A106G C116U A147G the “polymerase ribozyme fitness (log ratio)” value was no more than -4.2. In the case of A30C A39U G58U A60G G67A A142G U151A, the “polymerase ribozyme fitness (log ratio)” value is reported as no more than -4.2. For A29U C32U A122G, the “polymerase ribozyme fitness (log ratio)” value was no more than -4.2. In the case of A29U C32A G42U A64C C87G C103G, the “polymerase ribozyme fitness (log ratio)” value is reported as no more than -4.2. For A29C A120U G136A A142U, the “polymerase ribozyme fitness (log ratio)” value was no more than -4.2. In the case of A29C A64G C72G G88A G133C U151C, the “polymerase ribozyme fitness (log ratio)” value is reported as no more than -4.2. For A29U A66C C79U A97U G143C, the “polymerase ribozyme fitness (log ratio)” value was no more than -4.2. With A29C C95A G117U G126U G141C G143C the “polymerase ribozyme fitness (log ratio)” value was no more than -4.2. With A29G C32G U55C A91G C103U A142U U151C the “polymerase ribozyme fitness (log ratio)” value was no more than -4.2. In the case of A29U A60U G100A U145G G152U, the “polymerase ribozyme fitness (log ratio)” value is reported as no more than -4.2. For A29U U45A G48C C85A U111G C114G, the “polymerase ribozyme fitness (log ratio)” value was no more than -4.2. For A29U G70U, the “polymerase ribozyme fitness (log ratio)” value was no more than -4.2. With A29U G50U A52C U101G U148A the “polymerase ribozyme fitness (log ratio)” value was no more than -4.2. For A29G C76U G92A C123G G143U, the “polymerase ribozyme fitness (log ratio)” value was no more than -4.2. For A29U A107C, the “polymerase ribozyme fitness (log ratio)” value was no more than -4.2. For A29U G59C G62U C95U C116A, the “polymerase ribozyme fitness (log ratio)” value was no more than -4.2. In the case of A29G A41U G88U C95G G133U, the “polymerase ribozyme fitness (log ratio)” value is reported as no more than -4.2. For A30C U45A A52G G92A C114U G141C, the “polymerase ribozyme fitness (log ratio)” value was no more than -4.2. In the case of A29U C96G U102G A115U A122U G136U, the “polymerase ribozyme fitness (log ratio)” value is reported as no more than -4.2. In the case of A29G A41C C95A, the “polymerase ribozyme fitness (log ratio)” value is reported as no more than -4.2. With A29C C79U G84A G100U C118G A150G the “polymerase ribozyme fitness (log ratio)” value was no more than -4.2. In the case of A29U A73G C93A G128U G140U, the “polymerase ribozyme fitness (log ratio)” value is reported as no more than -4.2. In the case of A30C A49C, the “polymerase ribozyme fitness (log ratio)” value is reported as no more than -4.2. With A29U C79G G88C A113U C116U U127A U146A A147C the “polymerase ribozyme fitness (log ratio)” value was no more than -4.2. In the case of A29G C93G A115U C116G C149G, the “polymerase ribozyme fitness (log ratio)” value is reported as no more than -4.2. In the case of A29U U56A A60G G81A C87A, the “polymerase ribozyme fitness (log ratio)” value is reported as no more than -4.2.
